Measurements from the supplement of paper PMC9446081.
Hit rate of the full screen: of about 39,000 compounds, about 220 (0.56%) showed activity. The list shows a part of the results.

Each compound was assayed on Escherichia coli K-12 BW25113 (assay: relative growth (OD600 normalised to plate interquartile mean) (fraction); higher = less growth inhibition, active = 0.2 or less). Details: 50 µM; LB; incubation time: overnight (16-24 h).
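Also: static incubation at 37 °C against the wild-type strain, values averaged over two biological replicates.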

| Compound | relative growth |
| --- | --- |
| Cc1noc(C)c1NC(=O)Nc1ccc2c(c1)C(=O)N([C@@H](C)CO)C[C@@H](C)[C@H](CN(C)C(=O)Nc1ccc(C(F)(F)F)cc1)OCCCC[C@H](C)O2 | inactive: 1.02 |
| CCOC(=O)OC[C@@H]1[C@@H]2NC(=O)N(C)[C@@]1(COC(=O)NCCCCCC(=O)NO)Oc1ccccc12 | inactive: 1.01 |
| C[C@@H]1CCCCO[C@H](CN(C)Cc2ccccc2)[C@@H](C)CN([C@@H](C)CO)C(=O)c2cc(NC(=O)Nc3ccccc3)ccc2O1 | inactive: 1.01 |
| O=C(CN1CCOCC1)N[C@@H]1CC[C@@H](CCNC(=O)Nc2cc(F)ccc2F)O[C@@H]1CO | inactive: 0.988 |
| C[C@H]1CN([C@@H](C)CO)C(=O)c2cc(NC(=O)C3CC3)ccc2O[C@@H]1CN(C)Cc1ccc2c(c1)OCO2 | inactive: 0.998 |
| C[C@@H]1CN([C@H](C)CO)C(=O)c2cccc(NC(=O)c3cnccn3)c2O[C@H]1CN(C)S(=O)(=O)c1cn(C)cn1 | inactive: 1.01 |
| C[C@@H]1CN([C@H](C)CO)C(=O)c2cccc(NS(=O)(=O)c3cccs3)c2O[C@H]1CN(C)S(=O)(=O)c1ccc(F)cc1 | inactive: 0.822 |
| COc1ccc(S(=O)(=O)Nc2ccc3c(c2)C(=O)N([C@@H](C)CO)C[C@@H](C)[C@H](CN(C)S(=O)(=O)c2cn(C)cn2)OCCCC[C@H](C)O3)cc1 | inactive: 0.989 |
| COc1cccc(C#Cc2ccc3c(c2)O[C@@H](CN(C)C(=O)CN2CCOCC2)[C@H](C)CN([C@H](C)CO)S3(=O)=O)c1 | inactive: 0.949 |
| O=C(c1ccc(Cl)cc1)c1coc2c1cc(O)c1ccccc12 | inactive: 0.998 |
| C[C@@H]1CCCCO[C@H](CN(C)S(=O)(=O)c2ccc(F)cc2)[C@H](C)CN([C@H](C)CO)C(=O)c2cc(NS(C)(=O)=O)ccc2O1 | inactive: 1.03 |
| COc1ccc(S(=O)(=O)N(C)C[C@@H]2Oc3ccc(NS(=O)(=O)c4ccc(C)cc4)cc3CC(=O)N([C@@H](C)CO)C[C@@H]2C)cc1 | inactive: 1.01 |
| C[C@H]1CN([C@@H](C)CO)C(=O)Cc2cc(NC(=O)Cn3cnnn3)ccc2O[C@@H]1CN(C)Cc1ccc(C(F)(F)F)cc1 | inactive: 0.919 |
| O=C(CCCCCNC(=O)OCc1ccc(CO[C@@H]2C[C@H](c3ccc(C(F)(F)F)cc3)C=C(C(=O)N3CCN(Cc4ccc5c(c4)OCO5)CC3)O2)cc1)NO | inactive: 1.03 |
| COc1ccc(NC(=O)N(C)C[C@H]2Oc3ccc(NS(=O)(=O)c4cn(C)cn4)cc3C(=O)N([C@@H](C)CO)C[C@@H]2C)cc1 | inactive: 0.978 |
| C[C@H]1CN([C@@H](C)CO)C(=O)c2cccc(NC(=O)c3cnccn3)c2O[C@@H]1CN(C)Cc1ccc2c(c1)OCO2 | inactive: 1.02 |
| C[C@@H]1CN([C@@H](C)CO)C(=O)c2cc(NS(=O)(=O)c3ccc(Cl)cc3)ccc2O[C@@H](C)CCCCO[C@H]1CN(C)S(=O)(=O)c1ccccc1 | inactive: 1.03 |
| CO[C@@H]1[C@H](O)[C@@H](CO)O[C@H]1n1ccc(N)nc1=O | inactive: 0.99 |

| Compound | relative growth |
| --- | --- |
| COc1cc(/C=C/C(=O)OC[C@H]2O[C@@H](O[C@@H]3OC=C[C@H]4[C@H](O)[C@@H]5O[C@]5(CO)[C@@H]34)[C@H](O)[C@@H](O)[C@@H]2O)ccc1O | inactive: 0.998 |
| CC12CC3(C)CC(C)(C1)CC(C/N=C/c1ccc(O)cc1)(C2)C3 | inactive: 0.949 |
| C[C@@H]1CN([C@@H](C)CO)C(=O)c2cc(NC(=O)NC3CCCCC3)ccc2O[C@@H](C)CCCCO[C@@H]1CN(C)Cc1ccc(C(F)(F)F)cc1 | inactive: 1.02 |
| C[C@H]1CN([C@@H](C)CO)C(=O)Cc2cc(NC(=O)Cc3cn(C)c4ccccc34)ccc2O[C@@H]1CN(C)Cc1ccc(-c2ccccc2)cc1 | inactive: 0.979 |
| CCCC(=O)Nc1nc2[nH]c(C)cc(=O)n2n1 | inactive: 0.992 |
| C[C@H]1CCCCO[C@@H](CN(C)Cc2ccc(C(=O)O)cc2)[C@@H](C)CN([C@@H](C)CO)C(=O)c2cc(NC(=O)Nc3ccc4c(c3)OCO4)ccc2O1 | inactive: 1.04 |
| Cc1ccc(S(=O)(=O)Nc2ccc3c(c2)C(=O)N([C@H](C)CO)C[C@H](C)[C@@H](CN(C)S(C)(=O)=O)OCCCC[C@H](C)O3)cc1 | inactive: 1.01 |
| Cc1noc(C)c1NC(=O)N(C)C[C@@H]1Oc2ccc(NS(=O)(=O)c3cn(C)cn3)cc2C(=O)N([C@@H](C)CO)C[C@@H]1C | inactive: 0.908 |
| C[C@H](CO)N1C[C@H](C)[C@@H](CN(C)Cc2ccncc2)OCCCC[C@H](C)Oc2ccc(NC(=O)NC3CCCCC3)cc2C1=O | inactive: 0.937 |
| C[C@@H]1CCCCO[C@H](CN(C)Cc2ccc(C(F)(F)F)cc2)[C@@H](C)CN([C@H](C)CO)C(=O)c2cc(NC(=O)C3CCCCC3)ccc2O1 | inactive: 0.999 |
| Cc1noc(C)c1S(=O)(=O)N(C)C[C@H]1Oc2ccc(NC(=O)CCCN(C)C)cc2C(=O)N([C@H](C)CO)C[C@H]1C | inactive: 1.02 |
| COc1ccc2c3c(n(c2c1)C)[C@H](CO)N(C[C@]13CCN(CC1)C(=O)c1ccncc1)C(=O)C1CCOCC1 | inactive: 0.988 |
| C=C(c1ccc(C(=O)O)cc1)c1cc2c(cc1C)C(C)(C)CCC2(C)C | inactive: 0.759 |
| CCNC(=O)C[C@H]1CC[C@@H]2[C@@H](COc3ccc(NS(=O)(=O)c4ccccc4C)cc3C(=O)N2C)O1 | inactive: 0.971 |
| C[C@@H]1CN([C@@H](C)CO)C(=O)c2cc(NS(=O)(=O)c3ccccc3)ccc2O[C@@H](C)CCCCO[C@H]1CN(C)S(=O)(=O)c1cn(C)cn1 | inactive: 1 |
| C[C@@H]1CN([C@H](C)CO)C(=O)Cc2cc(NC(=O)NC3CCCCC3)ccc2O[C@@H]1CN(C)Cc1ccc(-c2ccccc2)cc1 | inactive: 1.01 |
| COc1cc2ncnc(Nc3ccc(F)c(Cl)c3)c2cc1OCCCN1CCOCC1 | inactive: 0.93 |
| Cc1ccc(S(=O)(=O)N(C)C[C@@H]2Oc3ccc(NC(=O)c4ccncc4)cc3CC(=O)N([C@H](C)CO)C[C@@H]2C)cc1 | inactive: 0.98 |
